Some of the results follow.
Target: T1, MBP-FoxP1dN (Mus musculus, UniProt P58462 326-579)
T1 sequence: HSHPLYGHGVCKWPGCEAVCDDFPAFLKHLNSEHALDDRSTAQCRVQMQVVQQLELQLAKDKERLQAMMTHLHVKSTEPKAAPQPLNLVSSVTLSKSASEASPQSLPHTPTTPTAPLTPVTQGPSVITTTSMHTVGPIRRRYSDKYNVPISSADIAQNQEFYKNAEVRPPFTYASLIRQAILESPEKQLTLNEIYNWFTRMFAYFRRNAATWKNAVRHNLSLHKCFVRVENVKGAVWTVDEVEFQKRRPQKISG
Test: PD-seq (MBP pull-down with sequencing); 20 mM Tris-HCl pH 7.5, 100 mM NaCl, 1.5 mM MgCl2, 0.4 uM protein, 0.1 uM dsDNA library, 30 min, room temperature, amylose pull-down; high values mean tight binding
Conditions: protein: recombinant; tags: His6-MBP; chain copies: 2; dsDNA, one strand shown
Procedure, shortened: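 Amylose resin was used to capture complexes formed during 30 min at room temperature in Tris pH 7.5 buffer with NaCl and MgCl2 between 0.4 µM His6-MBP-tagged mouse FoxP3 or FoxP1 fragment lacking the N-terminus, expressed in E. coli, and 0.1 µM Klenow-filled double-stranded degenerate DNA library. After three washes, the DNA was released with proteinase K, barcoded by PCR and sequenced on Illumina. Binding is pooled-replicate reads-per-million enrichment, pull-down over input.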

| Sequence | binding signal |
| --- | --- |
| GATGATTGTTCTCCCAGCTGATGAATTATAGGCATCGAGTAAACAAATTTTCCTAATCTTTCTGTTCAAGCGCCATCTAC | 1.07 RPM ratio (pull-down/input) |
| GATGATTGTTCTCCCAGCTGATGAATTATTCCAGTCGAGTAAACAAATTTTCCTAATCTTTCTGTTCAAGCGCCATCTAC | 1.03 RPM ratio (pull-down/input) |
| GATGATTGTTCTCCCAGCTGATGAATTAAAACAATCGAGTAAACAAATTTTCCTAATCTTTCTGTTCAAGCGCCATCTAC | 2 RPM ratio (pull-down/input) |
| GATGATTGTTCTCCCAGCTGATGAATTGGTGTATTCGAGTAAACAAATTTTCCTAATCTTTCTGTTCAAGCGCCATCTAC | 1.47 RPM ratio (pull-down/input) |
| GATGATTGTTCTCCCAGCTGATGAATTACGGTTATCGAGTAAACAAATTTTCCTAATCTTTCTGTTCAAGCGCCATCTAC | 1.1 RPM ratio (pull-down/input) |
| GATGATTGTTCTCCCAGCTGATGAATTTCACATGTCGAGTAAACAAATTTTCCTAATCTTTCTGTTCAAGCGCCATCTAC | 0.822 RPM ratio (pull-down/input) |
| GATGATTGTTCTCCCAGCTGATGAATTACGCCAGTCGAGTAAACAAATTTTCCTAATCTTTCTGTTCAAGCGCCATCTAC | 0.949 RPM ratio (pull-down/input) |
| GATGATTGTTCTCCCAGCTGATGAATTACCCGGCTCGAGTAAACAAATTTTCCTAATCTTTCTGTTCAAGCGCCATCTAC | 0.84 RPM ratio (pull-down/input) |
| GATGATTGTTCTCCCAGCTGATGAATTGGTCAGCTCGAGTAAACAAATTTTCCTAATCTTTCTGTTCAAGCGCCATCTAC | 0.862 RPM ratio (pull-down/input) |
| GATGATTGTTCTCCCAGCTGATGAATTCCGTTTATCGAGTAAACAAATTTTCCTAATCTTTCTGTTCAAGCGCCATCTAC | 1.27 RPM ratio (pull-down/input) |
| GATGATTGTTCTCCCAGCTGATGAATTATGTAGCTCGAGTAAACAAATTTTCCTAATCTTTCTGTTCAAGCGCCATCTAC | 1.02 RPM ratio (pull-down/input) |
| GATGATTGTTCTCCCAGCTGATGAATTAAATACGTCGAGTAAACAAATTTTCCTAATCTTTCTGTTCAAGCGCCATCTAC | 1.18 RPM ratio (pull-down/input) |
| GATGATTGTTCTCCCAGCTGATGAATTGCCCTGTTCGAGTAAACAAATTTTCCTAATCTTTCTGTTCAAGCGCCATCTAC | 0.883 RPM ratio (pull-down/input) |
| GATGATTGTTCTCCCAGCTGATGAATTGCGGGCCTCGAGTAAACAAATTTTCCTAATCTTTCTGTTCAAGCGCCATCTAC | 0.933 RPM ratio (pull-down/input) |
| GATGATTGTTCTCCCAGCTGATGAATTGCAAGATTCGAGTAAACAAATTTTCCTAATCTTTCTGTTCAAGCGCCATCTAC | 1.13 RPM ratio (pull-down/input) |
| GATGATTGTTCTCCCAGCTGATGAATTGGAAGGTTCGAGTAAACAAATTTTCCTAATCTTTCTGTTCAAGCGCCATCTAC | 0.78 RPM ratio (pull-down/input) |
| GATGATTGTTCTCCCAGCTGATGAATTAGCTTTCTCGAGTAAACAAATTTTCCTAATCTTTCTGTTCAAGCGCCATCTAC | 0.863 RPM ratio (pull-down/input) |
| GATGATTGTTCTCCCAGCTGATGAATTATCCACCTCGAGTAAACAAATTTTCCTAATCTTTCTGTTCAAGCGCCATCTAC | 0.874 RPM ratio (pull-down/input) |
